PubChem BioAssay AID720709 (National Center for Advancing Translational Sciences (NCATS), 2013)
About 520 (0.14%) of roughly 360,000 compounds were called active. Inconclusive results, whose numbers are uncertain, are shown with a selection of clear calls. The call rests on the fitted dose curve; in most records, active means well fitted inhibition curve with a large enough effect; inconclusive means small, poorly fitted or top-dose-only effect; inactive means no such curve, though single readings can be large or run the other way. Potencies of inconclusive entries are left out as doubtful fits.

target: Rap guanine nucleotide exchange factor 3 (Homo sapiens) (UniProt O95398); test: qHTS for Antagonist of cAMP-regulated guanine nucleotide exchange factor 3 (EPAC1): primary screen; conditions: EPAC1 GEF assay, Rap1b-BODIPY-GDP exchange fluorescence; series mostly up to 115 µM; further: nearly all actives have a fitted effect of over 50% in size
Potency means the concentration at half of the fitted maximal effect; tags describe the fitted curve by direction and shape.

Sequence of UniProt O95398 (O95398 whole entry, looked up): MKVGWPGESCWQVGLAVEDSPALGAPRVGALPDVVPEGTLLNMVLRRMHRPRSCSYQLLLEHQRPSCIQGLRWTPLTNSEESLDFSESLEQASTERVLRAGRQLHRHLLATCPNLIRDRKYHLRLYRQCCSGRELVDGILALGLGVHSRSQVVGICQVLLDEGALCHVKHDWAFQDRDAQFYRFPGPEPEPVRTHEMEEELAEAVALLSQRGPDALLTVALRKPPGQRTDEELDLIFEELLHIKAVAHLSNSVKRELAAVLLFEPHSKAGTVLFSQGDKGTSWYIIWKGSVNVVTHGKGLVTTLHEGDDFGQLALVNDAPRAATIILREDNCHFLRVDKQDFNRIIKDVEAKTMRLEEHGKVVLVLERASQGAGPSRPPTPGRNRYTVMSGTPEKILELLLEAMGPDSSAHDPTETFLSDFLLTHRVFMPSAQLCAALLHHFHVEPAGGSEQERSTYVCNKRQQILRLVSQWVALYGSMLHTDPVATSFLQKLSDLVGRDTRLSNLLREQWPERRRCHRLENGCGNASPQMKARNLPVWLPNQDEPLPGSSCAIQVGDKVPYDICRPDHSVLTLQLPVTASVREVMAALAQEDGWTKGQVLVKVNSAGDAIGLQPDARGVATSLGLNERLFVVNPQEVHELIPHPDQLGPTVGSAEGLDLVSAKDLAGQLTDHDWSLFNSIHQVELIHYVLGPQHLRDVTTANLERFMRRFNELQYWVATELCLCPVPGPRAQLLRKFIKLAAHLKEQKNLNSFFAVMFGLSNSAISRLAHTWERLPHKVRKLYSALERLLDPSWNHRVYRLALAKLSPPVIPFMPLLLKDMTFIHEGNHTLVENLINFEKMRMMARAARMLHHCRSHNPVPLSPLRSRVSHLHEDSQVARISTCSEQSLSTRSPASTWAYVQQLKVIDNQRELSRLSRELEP

Compound	Potency
COc1ccccc1OCCn1cc(C=O)c2ccccc21	inactive
COc1c(/C=C2\SC(=Nc3ccccc3Cl)NC2=O)cccc1[N+](=O)[O-]	inconclusive [inhibitor, single point]
Cc1ccc(S(=O)(=O)Nc2ccc(Nc3nccn4c(-c5cccc(OC(F)(F)F)c5)cnc34)cc2)cc1	inactive
COc1ccccc1CNCC(=O)Nc1cc(S(=O)(=O)N2CCOCC2)ccc1Cl	inconclusive [inhibitor, single point]
CCCCCCCOC(=O)c1nc(Cl)c(Cl)c(N)c1Cl	inconclusive [inhibitor, partial curve, poor fit]
COc1ccc(C2(c3ccc(OC(C)=O)cc3OC(C)=O)CC(c3ccccc3)NC(=S)N2)cc1 (stereo not given)	inconclusive [inhibitor, single point]
CC1=NOC(=O)/C1=C\c1ccc(-c2ccccc2Br)o1	inconclusive [inhibitor, partial curve]
O=C(NC1CCCCC1)C(c1ccccc1)n1c(=O)c(-c2ccco2)nc2ccccc21 (stereo not given)	inconclusive [inhibitor, single point]
CN(Cc1ccccc1)S(=O)(=O)c1ccc(OCC(=O)NCc2ccccn2)cc1	inactive
CNC(=O)c1ccc(NC(=O)CC23CC4CC(CC(C4)C2)C3)cc1	inconclusive [inhibitor, partial curve]
C=CCn1c(NS(=O)(=O)c2ccccc2)c(S(=O)(=O)c2ccc(C)cc2)c2nc3ccccc3nc21	inconclusive [inhibitor, full curve]
COc1cccc(/C=N/NC(=O)NC23CC4CC(CC(C4)C2)C3)c1O	inactive
CCOC(=O)C(C)Oc1cccc2c(=O)n(CC(=O)Nc3ccc4c(c3)OCCO4)ccc12 (stereo not given)	inconclusive [inhibitor, partial curve]
Cc1ccc(F)c(CNC(=O)C2(C)CCCN2C(=O)C(C)C)c1F (stereo not given)	inactive
Cc1c2ccccc2nc2c(F)c(NC(C)C)c(F)c(F)c12	inconclusive [inhibitor, single point]
COc1cc(C)ccc1Oc1nc(-c2ccccc2O)nc2ccccc12	inconclusive [inhibitor, full curve]
c1ccc2nc(NN=C3CCCCC3)ccc2c1	inconclusive [inhibitor, single point]
Cc1cc2nc(-c3cccc(Cl)c3)c(Cc3ccccc3)n2c(C)c1Br	inconclusive [inhibitor, full curve]
COc1cc(NC(=O)c2ccccc2NS(=O)(=O)c2ccc(Cl)s2)cc(OC)c1	inconclusive [inhibitor, single point]
OCC[C@@H]1C[C@@H](O)[C@H](O)[C@@]2(OCCc3ccccc32)O1	inactive

Compound	Potency
CC1C(=O)N(Cc2ccc([N+](=O)[O-])cc2)c2ccccc2N1C(=O)c1c(F)cccc1F (stereo not given)	inconclusive [inhibitor, partial curve]
CCCCNC(=O)NC12CC3CC(CC(C3)C1)C2	inconclusive [inhibitor, single point]
CCN(CC)c1ccc(/C=C/c2cc(-c3ccccc3)c3ccccc3n2)cc1	inconclusive [inhibitor, full curve, poor fit]
COc1ccc(-c2[nH]nc3oc(=O)c(CCO)c(C)c23)cc1	inconclusive [inhibitor, partial curve]
CCS(=O)(=O)Nc1cc2c3c(c1)CCC(=O)N3CCC2	inconclusive [inhibitor, single point]
CCc1ccccc1NCC(=O)Nc1ccc(Cl)c(C(F)(F)F)c1	inconclusive [inhibitor, partial curve]
O=[N+]([O-])c1ccc(C=NNc2ccc(S(=O)(=O)O)cc2)cc1	inactive
Cc1ccc(C(=O)NNC(=O)c2n[nH]c(=O)c3ccccc23)cc1C	inconclusive [inhibitor, partial curve]
O=C(NCc1cc(C(F)(F)F)cc(C(F)(F)F)c1)C1CC(c2ccccc2F)=NO1 (stereo not given)	inconclusive [inhibitor, full curve, poor fit]
COC(=O)c1sc(C(F)(F)F)c(-c2ccccc2)c1S(=O)(=O)NC(C)(C)C	inconclusive [inhibitor, full curve, poor fit]
C#CCOCCOCCOCCNc1nc(N2CCN(C(=O)[C@H](Cc3ccc(O)cc3)n3cc([C@@H](N)C(C)CC)nn3)CC2)nc(N2CCN(C(=O)[C@H](Cc3cc4ccccc4[nH]3)n3cc([C@@H](N)CC(C)C)nn3)CC2)n1 (stereo not given in full)	inconclusive [inhibitor, single point]
NC(=O)c1cc(-c2ccccc2)sc1NC(=O)CN1CCCCC1	inconclusive [inhibitor, single point]
CCOc1ccc(/C(C)=N/N2C(=O)C(CC(=O)Nc3ccc(OC)cc3[N+](=O)[O-])SC2=Nc2cccc(C)c2C)cc1 (stereo not given)	inconclusive [inhibitor, partial curve, poor fit]
CCOC(=O)c1c(C)nc2c(c1-c1ccccc1)C(=O)c1ccccc1-2	inactive
COc1ccc2cc(Br)ccc2c1CC(=O)N(C)C	inactive
O=C(N/N=C/c1ccc(O)c(O)c1)N/N=C/c1ccc(O)c(O)c1	inconclusive [inhibitor, full curve, poor fit]
O=C(NC1CCSc2ccccc21)c1cccc(Cl)c1 (stereo not given)	inconclusive [inhibitor, single point]
Cc1ccc(C(=O)OCC(=O)Nc2sccc2C(N)=O)cc1NC(=O)c1ccco1	inconclusive [inhibitor, single point]
CCOc1ccccc1NC(=S)N1CCN(c2ccccc2)CC1	inactive
COc1cccc(/C=C/C(=O)NCCc2ccc3c(c2)OCCO3)c1	inconclusive [inhibitor, single point]
